Our source for the enrichment score values is the supplement of paper PMC10369915.

Some of the results follow. Cut-off read from the data, not from the text of the source: active = 3.2 or more and inactive = the rest. Most of these values are background signal.
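Note: displayed peptides selected on beads carrying the immobilized SH2 domain, with library peptides lacking any tyrosine serving as negative controls.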

The first experiment addresses SHP2 C-SH2 domain E139D. Kind of experiment: enrichment score (SH2-bound / input frequency) (ratio); bacterial display of known human phosphotyrosine sites (pTyr-Var adds point mutants) read by sequencing; higher = stronger binding; tyrosines were phosphorylated by kinases first. To be noted: peptide library: pTyr-Var.
Take PPNSPYIGSSP [KCNT1_Y740]: the enrichment score is inactive: 0.596.

For SAEEDYKADAK [KCNT1_Y876_M877K], the enrichment score was inactive: 0.4.

Take TKEPKYGGAGS [KIAA1210_Y1615_E1616G]: the enrichment score is inactive: 0.533.

With ELRGTYTSLQQ [KIF3C_Y574], the enrichment score was inactive: 0.733.

Consider PSARTYCFKQE [KLHDC9_Y175_YF], for which the enrichment score was inactive: 0.99.

On to SSFDTYHLSRE [KIR3DL2_Y253_I252T_YF], for which the enrichment score was inactive: 0.674.

TLMNAYSSRCH [KIF11_Y231_S235C]: the enrichment score was inactive: 0.644.

With GRQWNYVASML [KLHL4_Y552_S557L], the enrichment score was inactive: 1.45.

Turning to KDLPNYNWKSF [KISS1_Y112_N115K], the enrichment score is inactive: 0.742.

Turning to LFSINYLHFGD [KDM4C_Y201_E206D_YF], the enrichment score was inactive: 2.86.

For the molecule KDFTKYVAYIE [KDM4B_Y31_N29T], the enrichment score was inactive: 0.754.

ADYYDYGRGLS [KHDRBS3_Y304_H306R]: the enrichment score is inactive: 0.819.

Turning to TKYVAYIESQG [KDM4B_Y34_N29T], the enrichment score is inactive: 0.943.

Turning to ILTFKYLQKPM [KIT_Y547_YF], the enrichment score is inactive: 1.39.

As for ELQGTYTSLQQ [KIF3C_Y574_R571Q], the enrichment score was inactive: 0.877.

On to LVPAWYIGFLC [KCNQ2_Y237_T234P], for which the enrichment score is inactive: 1.08.

For the molecule PQEVMYAQLDH [KIR3DL2_Y398_T397M], the enrichment score is inactive: 1.85.

In the case of TLMNAYSSCSH [KIF11_Y231_R234C], the enrichment score was inactive: 0.86.

For the molecule KDLPNYNWNSF [KISS1_Y112], the enrichment score is inactive: 1.37.

The target in a further experiment is SHP2 C-SH2 domain wild-type. The experiment is described as above. To be noted: peptide library: pTyr-Var.
As to PPNSPYIGSSP [KCNT1_Y740], the enrichment score was inactive: 0.472.

SAEEDYKADAK [KCNT1_Y876_M877K]: the enrichment score was inactive: 0.309.

In the case of TKEPKYGGAGS [KIAA1210_Y1615_E1616G], the enrichment score was inactive: 0.557.

On to ELRGTYTSLQQ [KIF3C_Y574], for which the enrichment score is inactive: 1.95.

PSARTYCFKQE [KLHDC9_Y175_YF]: the enrichment score is inactive: 1.05.

For SSFDTYHLSRE [KIR3DL2_Y253_I252T_YF], the enrichment score is inactive: 0.452.

Take TLMNAYSSRCH [KIF11_Y231_S235C]: the enrichment score is inactive: 0.807.

GRQWNYVASML [KLHL4_Y552_S557L]: the enrichment score is inactive: 1.27.

In the case of KDLPNYNWKSF [KISS1_Y112_N115K], the enrichment score is inactive: 0.722.

Regarding LFSINYLHFGD [KDM4C_Y201_E206D_YF], the enrichment score was inactive: 2.96.

On to KDFTKYVAYIE [KDM4B_Y31_N29T], for which the enrichment score was inactive: 1.23.

In the case of ADYYDYGRGLS [KHDRBS3_Y304_H306R], the enrichment score is inactive: 0.788.

Consider TKYVAYIESQG [KDM4B_Y34_N29T], for which the enrichment score was inactive: 2.2.

For the molecule ILTFKYLQKPM [KIT_Y547_YF], the enrichment score was inactive: 1.4.

Take ELQGTYTSLQQ [KIF3C_Y574_R571Q]: the enrichment score was inactive: 1.18.

In the case of LVPAWYIGFLC [KCNQ2_Y237_T234P], the enrichment score was inactive: 1.23.

Turning to PQEVMYAQLDH [KIR3DL2_Y398_T397M], the enrichment score is inactive: 2.78.

Consider TLMNAYSSCSH [KIF11_Y231_R234C], for which the enrichment score is inactive: 0.916.

Turning to KDLPNYNWNSF [KISS1_Y112], the enrichment score was inactive: 0.973.

In another experiment the target is SHP2 N-SH2 domain L43F. The experiment is described as above. To be noted: peptide library: pTyr-Var.
On to PPNSPYIGSSP [KCNT1_Y740], for which the enrichment score was inactive: 0.508.

For the molecule SAEEDYKADAK [KCNT1_Y876_M877K], the enrichment score is inactive: 0.597.

TKEPKYGGAGS [KIAA1210_Y1615_E1616G]: the enrichment score was inactive: 0.494.

Regarding ELRGTYTSLQQ [KIF3C_Y574], the enrichment score is inactive: 2.3.

With PSARTYCFKQE [KLHDC9_Y175_YF], the enrichment score was inactive: 0.669.

With SSFDTYHLSRE [KIR3DL2_Y253_I252T_YF], the enrichment score is inactive: 0.586.

With TLMNAYSSRCH [KIF11_Y231_S235C], the enrichment score is inactive: 0.649.

As for GRQWNYVASML [KLHL4_Y552_S557L], the enrichment score is inactive: 1.56.

As for KDLPNYNWKSF [KISS1_Y112_N115K], the enrichment score is inactive: 0.74.

As for LFSINYLHFGD [KDM4C_Y201_E206D_YF], the enrichment score is active: 3.47.

KDFTKYVAYIE [KDM4B_Y31_N29T]: the enrichment score is inactive: 0.69.

In the case of ADYYDYGRGLS [KHDRBS3_Y304_H306R], the enrichment score is inactive: 0.8.

On to TKYVAYIESQG [KDM4B_Y34_N29T], for which the enrichment score is inactive: 0.996.

As to ILTFKYLQKPM [KIT_Y547_YF], the enrichment score is inactive: 1.31.

With ELQGTYTSLQQ [KIF3C_Y574_R571Q], the enrichment score was inactive: 1.38.

LVPAWYIGFLC [KCNQ2_Y237_T234P]: the enrichment score is inactive: 1.16.

Turning to PQEVMYAQLDH [KIR3DL2_Y398_T397M], the enrichment score was active: 7.39.

As to TLMNAYSSCSH [KIF11_Y231_R234C], the enrichment score was inactive: 0.956.

In the case of KDLPNYNWNSF [KISS1_Y112], the enrichment score is inactive: 0.98.

A further experiment addresses SHP2 N-SH2 domain T42A. Described as above. Conditions: peptide library: pTyr-Var.
With PPNSPYIGSSP [KCNT1_Y740], the enrichment score was inactive: 0.486.

On to SAEEDYKADAK [KCNT1_Y876_M877K], for which the enrichment score is inactive: 0.402.

For the molecule TKEPKYGGAGS [KIAA1210_Y1615_E1616G], the enrichment score was inactive: 0.46.

Turning to ELRGTYTSLQQ [KIF3C_Y574], the enrichment score is inactive: 1.57.

Turning to PSARTYCFKQE [KLHDC9_Y175_YF], the enrichment score is inactive: 0.696.

Turning to SSFDTYHLSRE [KIR3DL2_Y253_I252T_YF], the enrichment score was inactive: 0.424.

Regarding TLMNAYSSRCH [KIF11_Y231_S235C], the enrichment score was inactive: 0.693.

Consider GRQWNYVASML [KLHL4_Y552_S557L], for which the enrichment score is inactive: 1.13.

For the molecule KDLPNYNWKSF [KISS1_Y112_N115K], the enrichment score was inactive: 0.524.

In the case of LFSINYLHFGD [KDM4C_Y201_E206D_YF], the enrichment score was active: 3.75.

For the molecule KDFTKYVAYIE [KDM4B_Y31_N29T], the enrichment score is inactive: 0.651.

Consider ADYYDYGRGLS [KHDRBS3_Y304_H306R], for which the enrichment score is inactive: 0.69.

Take TKYVAYIESQG [KDM4B_Y34_N29T]: the enrichment score is inactive: 2.1.

As to ILTFKYLQKPM [KIT_Y547_YF], the enrichment score was inactive: 1.38.

In the case of ELQGTYTSLQQ [KIF3C_Y574_R571Q], the enrichment score was inactive: 1.11.

In the case of LVPAWYIGFLC [KCNQ2_Y237_T234P], the enrichment score was inactive: 0.85.

For the molecule PQEVMYAQLDH [KIR3DL2_Y398_T397M], the enrichment score was active: 9.74.

On to TLMNAYSSCSH [KIF11_Y231_R234C], for which the enrichment score was inactive: 0.856.

As to KDLPNYNWNSF [KISS1_Y112], the enrichment score was inactive: 0.696.

Another experiment concerns the target SHP2 N-SH2 domain T52S. The experiment is described as above. To be noted: peptide library: pTyr-Var.
Turning to PPNSPYIGSSP [KCNT1_Y740], the enrichment score is inactive: 0.449.

As to SAEEDYKADAK [KCNT1_Y876_M877K], the enrichment score is inactive: 0.426.

For the molecule TKEPKYGGAGS [KIAA1210_Y1615_E1616G], the enrichment score is inactive: 0.541.

As to ELRGTYTSLQQ [KIF3C_Y574], the enrichment score is inactive: 1.98.

Turning to PSARTYCFKQE [KLHDC9_Y175_YF], the enrichment score is inactive: 0.773.

With SSFDTYHLSRE [KIR3DL2_Y253_I252T_YF], the enrichment score is inactive: 0.682.

On to TLMNAYSSRCH [KIF11_Y231_S235C], for which the enrichment score was inactive: 0.768.

On to GRQWNYVASML [KLHL4_Y552_S557L], for which the enrichment score is inactive: 1.34.

For KDLPNYNWKSF [KISS1_Y112_N115K], the enrichment score was inactive: 0.789.

For LFSINYLHFGD [KDM4C_Y201_E206D_YF], the enrichment score is active: 3.3.

As for KDFTKYVAYIE [KDM4B_Y31_N29T], the enrichment score is inactive: 0.669.

For ADYYDYGRGLS [KHDRBS3_Y304_H306R], the enrichment score was inactive: 0.69.

For the molecule TKYVAYIESQG [KDM4B_Y34_N29T], the enrichment score is inactive: 0.886.

For the molecule ILTFKYLQKPM [KIT_Y547_YF], the enrichment score is inactive: 1.71.

For ELQGTYTSLQQ [KIF3C_Y574_R571Q], the enrichment score was inactive: 1.4.

In the case of LVPAWYIGFLC [KCNQ2_Y237_T234P], the enrichment score was inactive: 0.903.

In the case of PQEVMYAQLDH [KIR3DL2_Y398_T397M], the enrichment score is active: 7.34.

For the molecule TLMNAYSSCSH [KIF11_Y231_R234C], the enrichment score is inactive: 0.717.

With KDLPNYNWNSF [KISS1_Y112], the enrichment score is inactive: 0.837.

The target of the next experiment is SHP2 N-SH2 domain wild-type. Described as above. To be noted: peptide library: pTyr-Var.
Consider PPNSPYIGSSP [KCNT1_Y740], for which the enrichment score is inactive: 0.658.

Regarding SAEEDYKADAK [KCNT1_Y876_M877K], the enrichment score was inactive: 0.451.

As to TKEPKYGGAGS [KIAA1210_Y1615_E1616G], the enrichment score was inactive: 0.535.

For ELRGTYTSLQQ [KIF3C_Y574], the enrichment score is inactive: 0.92.

Regarding PSARTYCFKQE [KLHDC9_Y175_YF], the enrichment score is inactive: 1.3.

As for SSFDTYHLSRE [KIR3DL2_Y253_I252T_YF], the enrichment score was inactive: 0.546.

For TLMNAYSSRCH [KIF11_Y231_S235C], the enrichment score was inactive: 0.85.

For GRQWNYVASML [KLHL4_Y552_S557L], the enrichment score is inactive: 1.52.

Take KDLPNYNWKSF [KISS1_Y112_N115K]: the enrichment score is inactive: 0.87.

For LFSINYLHFGD [KDM4C_Y201_E206D_YF], the enrichment score is inactive: 3.14.

Consider KDFTKYVAYIE [KDM4B_Y31_N29T], for which the enrichment score was inactive: 0.864.

On to ADYYDYGRGLS [KHDRBS3_Y304_H306R], for which the enrichment score is inactive: 0.82.

As for TKYVAYIESQG [KDM4B_Y34_N29T], the enrichment score was inactive: 0.955.

As for ILTFKYLQKPM [KIT_Y547_YF], the enrichment score was inactive: 1.62.

For the molecule ELQGTYTSLQQ [KIF3C_Y574_R571Q], the enrichment score was inactive: 0.759.

As to LVPAWYIGFLC [KCNQ2_Y237_T234P], the enrichment score was inactive: 1.1.

PQEVMYAQLDH [KIR3DL2_Y398_T397M]: the enrichment score is active: 3.78.

Take TLMNAYSSCSH [KIF11_Y231_R234C]: the enrichment score is inactive: 0.973.

In the case of KDLPNYNWNSF [KISS1_Y112], the enrichment score was inactive: 1.13.
